{"source": "the supplement of paper PMC12217912", "parents": {"B1": {"name": "TEV protease; numbered along this chain (parent)", "chain": "MGESLFKGPRDYNPISSSICHLTNESDGHTTSLYGIGFGPFIITNKHLFRRNNGTLVVQSLHGVFKVKDTTTLQQHLVDGRDMIIIRMPKDFPPFPQKLKFREPQREERICLVTTNFQTKSMSSMVSDTSCTFPSGDGIFWKHWIQTKDGQCGSPLVSTRDGFIVGIHSASNFTNTNNYFTSVPKNFMELLTNQEAQQWVSGWRLNADSVLWGGHKVFMVKPEEPFQPVKEATQL"}}, "variants_of": "B1", "assay": "raw area under fraction-flipped curve 0-4 h after induction (AUC4h, not background-subtracted), DNA-recorder readout of cleavage of the substrate (dimensionless); higher = more cleavage of the substrate by the protease variant", "conditions": "temperature: 34 °C; time window: 0-4 h after rhamnose induction", "note": "Some of the results follow. The full chains were built here from the parent and the listed change. Values near 0.05 are background.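 Further: Bxb1 expression induced with 0.2% (w/v) L-rhamnose at OD600 near 0.5, cultures sampled hourly, flipped fraction per protease–substrate barcode pair counted by paired-end Illumina sequencing.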"}
{"variant": "R204K", "values": [{"measurement": "area with substrate ENCYFQS", "value": 0.07}, {"measurement": "area with substrate ENDYFQS", "value": 0.0826}, {"measurement": "area with substrate ENEYFQS", "value": 0.0638}, {"measurement": "area with substrate ENFYFQS", "value": 0.0615}, {"measurement": "area with substrate ENGYFQS", "value": 0.0636}, {"measurement": "area with substrate ENIYFQS", "value": 0.107}, {"measurement": "area with substrate ENKYFQS", "value": 0.0503}, {"measurement": "area with substrate ENNYFQS", "value": 0.0227}, {"measurement": "area with substrate ENQYFQS", "value": 0.0576}, {"measurement": "area with substrate ENRYFQS", "value": 0.0514}, {"measurement": "area with substrate ENSYFQS", "value": 0.0851}, {"measurement": "area with substrate ENVYFQS", "value": 0.0846}, {"measurement": "area with substrate ENWYFQS", "value": 0.0522}, {"measurement": "area with substrate ENYYFQS", "value": 0.0557}]}
{"variant": "V220R", "values": [{"measurement": "area with substrate ENAYFQS", "value": 0.07}, {"measurement": "area with substrate ENCYFQS", "value": 0.0782}, {"measurement": "area with substrate ENDYFQS", "value": 0.0626}, {"measurement": "area with substrate ENEYFQS", "value": 0.0593}, {"measurement": "area with substrate ENFYFQS", "value": 0.0632}, {"measurement": "area with substrate ENGYFQS", "value": 0.0678}, {"measurement": "area with substrate ENHYFQS", "value": 0.0553}, {"measurement": "area with substrate ENNYFQS", "value": 0.0675}, {"measurement": "area with substrate ENPYFQS", "value": 0.0463}, {"measurement": "area with substrate ENQYFQS", "value": 0.0602}, {"measurement": "area with substrate ENRYFQS", "value": 0.056}, {"measurement": "area with substrate ENSYFQS", "value": 0.0609}, {"measurement": "area with substrate ENVYFQS", "value": 0.0654}, {"measurement": "area with substrate ENWYFQS", "value": 0.0658}, {"measurement": "area with substrate ENYYFQS", "value": 0.0574}]}
{"variant": "S16A", "values": [{"measurement": "area with substrate ENCYFQS", "value": 0.0634}, {"measurement": "area with substrate ENDYFQS", "value": 0.0543}, {"measurement": "area with substrate ENEYFQS", "value": 0.0484}, {"measurement": "area with substrate ENFYFQS", "value": 0.0574}, {"measurement": "area with substrate ENHYFQS", "value": 0.0525}, {"measurement": "area with substrate ENIYFQS", "value": 0.104}, {"measurement": "area with substrate ENKYFQS", "value": 0.0404}, {"measurement": "area with substrate ENMYFQS", "value": 0.0748}, {"measurement": "area with substrate ENNYFQS", "value": 0.0656}, {"measurement": "area with substrate ENPYFQS", "value": 0.0649}, {"measurement": "area with substrate ENQYFQS", "value": 0.062}, {"measurement": "area with substrate ENSYFQS", "value": 0.0622}, {"measurement": "area with substrate ENVYFQS", "value": 0.0795}, {"measurement": "area with substrate ENYYFQS", "value": 0.0661}]}
{"variant": "S16Y", "values": [{"measurement": "area with substrate ENCYFQS", "value": 0.0651}, {"measurement": "area with substrate ENDYFQS", "value": 0.108}, {"measurement": "area with substrate ENEYFQS", "value": 0.0717}, {"measurement": "area with substrate ENGYFQS", "value": 0.0558}, {"measurement": "area with substrate ENIYFQS", "value": 0.0891}, {"measurement": "area with substrate ENKYFQS", "value": 0.0627}, {"measurement": "area with substrate ENNYFQS", "value": 0.0607}, {"measurement": "area with substrate ENQYFQS", "value": 0.0708}, {"measurement": "area with substrate ENSYFQS", "value": 0.0678}, {"measurement": "area with substrate ENWYFQS", "value": 0.0468}]}
{"variant": "D208S", "values": [{"measurement": "area with substrate ENAYFQS", "value": 0.0373}, {"measurement": "area with substrate ENCYFQS", "value": 0.0646}, {"measurement": "area with substrate ENFYFQS", "value": 0.0503}, {"measurement": "area with substrate ENGYFQS", "value": 0.0469}, {"measurement": "area with substrate ENIYFQS", "value": 0.106}, {"measurement": "area with substrate ENKYFQS", "value": 0.056}, {"measurement": "area with substrate ENNYFQS", "value": 0.0571}, {"measurement": "area with substrate ENQYFQS", "value": 0.0583}, {"measurement": "area with substrate ENRYFQS", "value": 0.0476}, {"measurement": "area with substrate ENSYFQS", "value": 0.0729}]}
{"variant": "R81N", "values": [{"measurement": "area with substrate ENCYFQS", "value": 0.0505}, {"measurement": "area with substrate ENDYFQS", "value": 0.0633}, {"measurement": "area with substrate ENEYFQS", "value": 0.0648}, {"measurement": "area with substrate ENGYFQS", "value": 0.063}, {"measurement": "area with substrate ENHYFQS", "value": 0.058}, {"measurement": "area with substrate ENIYFQS", "value": 0.0761}, {"measurement": "area with substrate ENKYFQS", "value": 0.0716}, {"measurement": "area with substrate ENQYFQS", "value": 0.0488}, {"measurement": "area with substrate ENRYFQS", "value": 0.0657}, {"measurement": "area with substrate ENSYFQS", "value": 0.05}, {"measurement": "area with substrate ENVYFQS", "value": 0.052}]}
{"variant": "T176D", "values": [{"measurement": "area with substrate ENCYFQS", "value": 0.0561}, {"measurement": "area with substrate ENDYFQS", "value": 0.0695}, {"measurement": "area with substrate ENFYFQS", "value": 0.0549}, {"measurement": "area with substrate ENIYFQS", "value": 0.0715}, {"measurement": "area with substrate ENMYFQS", "value": 0.0535}, {"measurement": "area with substrate ENPYFQS", "value": 0.072}, {"measurement": "area with substrate ENQYFQS", "value": 0.069}, {"measurement": "area with substrate ENRYFQS", "value": 0.0582}, {"measurement": "area with substrate ENSYFQS", "value": 0.0622}, {"measurement": "area with substrate ENVYFQS", "value": 0.0265}, {"measurement": "area with substrate ENWYFQS", "value": 0.0708}, {"measurement": "area with substrate ENYYFQS", "value": 0.0584}]}
{"variant": "T176S", "values": [{"measurement": "area with substrate ENCYFQS", "value": 0.062}, {"measurement": "area with substrate ENDYFQS", "value": 0.0608}, {"measurement": "area with substrate ENEYFQS", "value": 0.065}, {"measurement": "area with substrate ENFYFQS", "value": 0.059}, {"measurement": "area with substrate ENGYFQS", "value": 0.0628}, {"measurement": "area with substrate ENHYFQS", "value": 0.0601}, {"measurement": "area with substrate ENIYFQS", "value": 0.083}, {"measurement": "area with substrate ENKYFQS", "value": 0.0508}, {"measurement": "area with substrate ENNYFQS", "value": 0.0562}, {"measurement": "area with substrate ENPYFQS", "value": 0.0452}, {"measurement": "area with substrate ENQYFQS", "value": 0.0688}, {"measurement": "area with substrate ENRYFQS", "value": 0.0493}, {"measurement": "area with substrate ENSYFQS", "value": 0.0365}, {"measurement": "area with substrate ENVYFQS", "value": 0.0712}, {"measurement": "area with substrate ENYYFQS", "value": 0.0533}]}
{"variant": "T176R", "values": [{"measurement": "area with substrate ENCYFQS", "value": 0.0327}, {"measurement": "area with substrate ENHYFQS", "value": 0.0542}, {"measurement": "area with substrate ENQYFQS", "value": 0.0877}, {"measurement": "area with substrate ENTYFQS", "value": 0.0615}]}
{"variant": "unchanged", "values": [{"measurement": "area with substrate ENAYFQS", "value": 0.0628}, {"measurement": "area with substrate ENCYFQS", "value": 0.0667}, {"measurement": "area with substrate ENDYFQS", "value": 0.0615}, {"measurement": "area with substrate ENEYFQS", "value": 0.061}, {"measurement": "area with substrate ENFYFQS", "value": 0.0618}, {"measurement": "area with substrate ENGYFQS", "value": 0.0629}, {"measurement": "area with substrate ENHYFQS", "value": 0.0609}, {"measurement": "area with substrate ENIYFQS", "value": 0.108}, {"measurement": "area with substrate ENKYFQS", "value": 0.0599}, {"measurement": "area with substrate ENMYFQS", "value": 0.0799}, {"measurement": "area with substrate ENNYFQS", "value": 0.0611}, {"measurement": "area with substrate ENPYFQS", "value": 0.0602}, {"measurement": "area with substrate ENQYFQS", "value": 0.0602}, {"measurement": "area with substrate ENRYFQS", "value": 0.0587}, {"measurement": "area with substrate ENSYFQS", "value": 0.0623}, {"measurement": "area with substrate ENTYFQS", "value": 0.0629}, {"measurement": "area with substrate ENVYFQS", "value": 0.0781}, {"measurement": "area with substrate ENWYFQS", "value": 0.05}, {"measurement": "area with substrate ENYYFQS", "value": 0.0597}]}
{"variant": "R160Y", "values": [{"measurement": "area with substrate ENCYFQS", "value": 0.0648}, {"measurement": "area with substrate ENDYFQS", "value": 0.0616}, {"measurement": "area with substrate ENEYFQS", "value": 0.0644}, {"measurement": "area with substrate ENGYFQS", "value": 0.0711}, {"measurement": "area with substrate ENHYFQS", "value": 0.0592}, {"measurement": "area with substrate ENKYFQS", "value": 0.0603}, {"measurement": "area with substrate ENMYFQS", "value": 0.105}, {"measurement": "area with substrate ENNYFQS", "value": 0.0541}, {"measurement": "area with substrate ENPYFQS", "value": 0.0547}, {"measurement": "area with substrate ENQYFQS", "value": 0.0343}, {"measurement": "area with substrate ENSYFQS", "value": 0.0634}, {"measurement": "area with substrate ENVYFQS", "value": 0.0713}, {"measurement": "area with substrate ENWYFQS", "value": 0.0522}]}
{"variant": "P184G", "values": [{"measurement": "area with substrate ENCYFQS", "value": 0.118}, {"measurement": "area with substrate ENDYFQS", "value": 0.0411}, {"measurement": "area with substrate ENEYFQS", "value": 0.0464}, {"measurement": "area with substrate ENNYFQS", "value": 0.0286}, {"measurement": "area with substrate ENPYFQS", "value": 0.0587}, {"measurement": "area with substrate ENQYFQS", "value": 0.05}, {"measurement": "area with substrate ENSYFQS", "value": 0.0644}, {"measurement": "area with substrate ENTYFQS", "value": 0.0536}, {"measurement": "area with substrate ENVYFQS", "value": 0.0475}]}
{"variant": "P184H", "values": [{"measurement": "area with substrate ENCYFQS", "value": 0.054}, {"measurement": "area with substrate ENEYFQS", "value": 0.092}, {"measurement": "area with substrate ENFYFQS", "value": 0.0568}, {"measurement": "area with substrate ENHYFQS", "value": 0.0507}, {"measurement": "area with substrate ENIYFQS", "value": 0.089}, {"measurement": "area with substrate ENKYFQS", "value": 0.0458}, {"measurement": "area with substrate ENQYFQS", "value": 0.0546}, {"measurement": "area with substrate ENRYFQS", "value": 0.0377}, {"measurement": "area with substrate ENSYFQS", "value": 0.063}, {"measurement": "area with substrate ENTYFQS", "value": 0.0458}, {"measurement": "area with substrate ENVYFQS", "value": 0.0547}, {"measurement": "area with substrate ENYYFQS", "value": 0.056}]}
{"variant": "T192G", "values": [{"measurement": "area with substrate ENCYFQS", "value": 0.0688}, {"measurement": "area with substrate ENDYFQS", "value": 0.066}, {"measurement": "area with substrate ENEYFQS", "value": 0.0592}, {"measurement": "area with substrate ENHYFQS", "value": 0.0942}, {"measurement": "area with substrate ENNYFQS", "value": 0.0514}, {"measurement": "area with substrate ENQYFQS", "value": 0.0582}, {"measurement": "area with substrate ENSYFQS", "value": 0.0615}, {"measurement": "area with substrate ENTYFQS", "value": 0.0612}, {"measurement": "area with substrate ENYYFQS", "value": 0.0479}]}
